Experimental data as given in PubChem BioAssay AID894 (National Center for Advancing Translational Sciences (NCATS), 2007).
Among all 150,000 compounds or so, about 6,500 (4.3%) were called active. This list was built around the results that the source calls inconclusive (neither active nor inactive); the mix of calls is not that of the screen. Calls follow the shape of the dose curve; as a rule, active = well fitted inhibition curve with a large enough effect (not every such curve was filed as active); inconclusive = small, poorly fitted or top-dose-only effect, or another doubt; inactive = no such curve, though single readings can be large or run the other way. No potency is given beside an inconclusive call; the fits are too rough.

Target: 15-hydroxyprostaglandin dehydrogenase [NAD(+)] (Homo sapiens) (UniProt P15428)
Test: qHTS Assay for Inhibitors of HPGD (15-Hydroxyprostaglandin Dehydrogenase)
Details: purified HPGD, NADH fluorescence kinetic, PGE2 substrate; activity change, negative = inhibition: active compounds read low
Outline: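 20 nM HPGD preincubated 15 min at room temperature with compound in 50 mM Tris-HCl pH 8, 0.01% Tween 20. Started with 1 mM NAD+ and 30 uM prostaglandin E2; NADH fluorescence (360/450 nm) read 5 times over 30-s intervals, last minus first.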
% is scaled to controls: 0 for no effect and ±100 for the full control effect; potency is read from the fitted curve at half-maximal effect; tags tell the direction and shape of the fitted curve.

Chain of UniProt P15428 (P15428 whole entry, looked up): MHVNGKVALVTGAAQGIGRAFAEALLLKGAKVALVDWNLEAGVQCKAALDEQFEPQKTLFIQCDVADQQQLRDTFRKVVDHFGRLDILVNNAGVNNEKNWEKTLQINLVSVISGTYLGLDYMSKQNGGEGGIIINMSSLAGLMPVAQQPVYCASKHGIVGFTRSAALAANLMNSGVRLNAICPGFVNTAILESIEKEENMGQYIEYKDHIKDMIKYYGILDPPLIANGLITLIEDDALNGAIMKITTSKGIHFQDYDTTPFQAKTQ

SMILES | activity change, negative = inhibition | Potency
CC(=O)NC(CCCN1C(=O)c2ccccc2C1=O)c1nnn(C)n1 (stereo unspecified) | inactive: -3.36% | 
Cc1ccc(NC(=O)CCNC(=O)c2ccc(Cl)cc2)cc1F | inactive: -20.5% | 
Cc1[nH]nc(Sc2ccccn2)c1[N+](=O)[O-] | inactive: -1.3% | 
Cc1cccc(OCC(=O)Nc2ccc3c(C)cc(=O)oc3c2)c1 |  | inconclusive [inhibitor, partial curve]
CCOCCCNC(=S)NCCCNc1nc2cc3c(cc2cc1C#N)OCO3 |  | inconclusive [inhibitor, partial curve]
COc1cc(C(=O)NNC(=S)NC(=O)c2ccc(Cl)cc2)cc(OC)c1OC | inactive: -25.6% | 
Cc1cccc(-c2n[nH]c(=S)n2/N=C/c2ccc(C)o2)c1 |  | active: 15.8 µM
CCC1CCC(NC2CCCCNC2=O)CC1 (stereo unspecified) | inactive: 3.21% | 
CC(/C=C/c1ccccc1)=N/NC(=O)c1cc([N+](=O)[O-])cc([N+](=O)[O-])c1 |  | inconclusive [inhibitor, partial curve, poor fit]
O=C(CCc1ccc(S(=O)(=O)N2CCOCC2)cc1)Nc1ccc2ccccc2c1 |  | inconclusive [inhibitor, partial curve]
O=C(Cc1ccc(Br)cc1)N1CCCCCC1 |  | inconclusive [inhibitor, single point]
CC1(c2ccncc2)Nc2ccccc2-c2nc3ccccc3n21 (stereo unspecified) |  | inconclusive [inhibitor, partial curve]
OC[C@@H]1[C@@H](c2ccc(F)cc2)C(c2cccc(Cl)c2)=NN1c1ccccc1 |  | inconclusive [inhibitor, partial curve]
N#C/C(=C\c1c(N2CCCCC2)nc2ccccn2c1=O)C(=O)NC1CCS(=O)(=O)C1 (stereo unspecified) |  | inconclusive [inhibitor, full curve, poor fit]
COc1ccc(CCNC(=O)c2cnc3scc(C)n3c2=O)cc1OC |  | inconclusive [inhibitor, partial curve]
CCc1ccc(C(=O)N2CCCC2)s1 |  | active: 15.8 µM
CCOC(=O)CSc1nnc(CSc2nc3sc4c(c3c(=O)[nH]2)CCCC4)n1-c1ccccc1 |  | active: 14.1 µM
Cc1cc2n(n1)C(c1ccco1)Nc1ccccc1-2 (stereo unspecified) |  | inconclusive [inhibitor, partial curve]
O=C(Nc1ccc2[nH]c3c(c2c1)CCCC3)c1ccco1 |  | inconclusive [inhibitor, partial curve]
CN1CCN(C(=O)c2ccc(-n3cccc3)cc2)CC1 |  | active: 14.1 µM
CC(=O)Nc1ccc(-c2nc3ccc(Cl)cc3[nH]2)cc1 |  | inconclusive [inhibitor, partial curve]
Cc1[nH]c2ccc(-c3n[nH]c(=S)n3Cc3ccccc3)cc2c1C |  | inconclusive [inhibitor, partial curve]
Cc1cc(C)n(-c2nnc(C)c(=O)[nH]2)n1 | inactive: -6.59% | 

SMILES | activity change, negative = inhibition | Potency
Cc1cc(S(=O)(=O)NC2CCCCC2)ccc1OCC(=O)NCc1ccccn1 |  | active: 15.8 µM
COc1ccc(OC)c(NC(=O)c2ccc(CN(c3cc(Cl)ccc3C)S(=O)(=O)c3ccccc3)cc2)c1 |  | inconclusive [inhibitor, partial curve]
FC(F)(F)c1ccc(Cl)c(N/N=C/c2ccc(N3CCOCC3)s2)c1 |  | inconclusive [inhibitor, partial curve]
CC(=O)Oc1ccc2oc(=O)c3c(c2c1)CCCN3C(=O)CN1CCN(c2ncccn2)CC1 | inactive: -8.85% | 
CCOC(=O)c1c(CC(C)C)csc1NC(=O)CCl | inactive: -7.54% | 
COC(=O)C1(Cc2ccccc2)C=C2C(=C(C(C)C)C(=O)C2C)CN1 (stereo unspecified) |  | inconclusive [inhibitor, partial curve]
Cc1[nH][nH]c(=O)c1C(c1ccc(O)c([N+](=O)[O-])c1)c1c(C)[nH][nH]c1=O | inactive: -7.39% | 
COc1ccc(C2C(C#N)=C(C)NC3=C2C(=O)CC(C)(C)C3)c(OC)c1 (stereo unspecified) |  | inconclusive [inhibitor, partial curve]
COCCn1cnnc1SCC(=O)Nc1cccc(S(=O)(=O)N2CCCCCC2)c1 | inactive: -4.38% | 
CC(=O)Nc1ccc(C2Nc3ccccc3C(=O)N2C2CCCCC2)cc1 (stereo unspecified) |  | inconclusive [inhibitor, partial curve]
O=C(Cc1ccccc1)NNC(=O)Nc1ccc(Cl)c(Cl)c1 | inactive: -1.64% | 
Cc1ccc(-c2cnc(-c3ccncc3)o2)cc1 |  | inconclusive [inhibitor, partial curve]
C=C(C)CNC(=S)N/N=C/c1ccc(N2CCOCC2)cc1 |  | inconclusive [inhibitor, partial curve]
O=C(N/N=C/c1c[nH]c2ccccc12)c1ccn(Cc2ccc(Cl)cc2)n1 | inactive: -16.2% | 
CN(Cc1ccco1)c1ncnc2ccc(-c3cccc(C#N)c3)cc12 |  | inconclusive [inhibitor, partial curve]
O=C(Cc1ccc(Cl)cc1)Nc1ccc(SC(F)F)cc1 | inactive: -6.26% | 
CN(C)Cc1ccccc1-c1nccc(N(C)C)n1 |  | inconclusive [inhibitor, partial curve]
O=C(Nc1nc2cc(Cl)ccc2s1)C1CCCN(S(=O)(=O)c2cccc3cccnc23)C1 (stereo unspecified) | inactive: -26.6% | 
CN(C)c1ccnc2sc3c(=O)n(-c4ccccc4)cnc3c12 |  | inconclusive [inhibitor, partial curve]
CCN(CC)S(=O)(=O)c1cccc(-c2n[nH]c(=S)n2/N=C/c2ccc(OC)cc2)c1 |  | active: 15.8 µM
CCOc1ccc(OCc2ccc(C(=O)N3CCCC3)o2)cc1 |  | inconclusive [inhibitor, partial curve]
CCOC(=O)COc1ccc2c(c1)C(=O)CC1(CCCCC1)O2 |  | inconclusive [inhibitor, partial curve]
Clc1ccc(-c2nnc(SCc3ccon3)o2)c(Cl)c1 |  | inconclusive [inhibitor, partial curve]
